These results are taken from the supplement of paper PMC12230231.

± gives the standard deviation of the averaged measurements. Restriction of a single-cycle SIVsab GFP reporter by TRIM5α v1-loop variants in CRFK cells. Human variants: read share among cells still uninfected after two challenges over input, higher = gained restriction. Rhesus variants: share among infected cells over input, higher = lost restriction. Reporter dose not given per row. No active / inactive call per row; the paper calls a change when both replicates lie above its controls (mean + 2 SD of stop or wild-type variants, or the top frameshift score). Residues outside the varied loop are taken from Swiss-Prot. The paper reads the human single-substitution scores as noise; they and the rhesus combinations repeat poorly (rank correlation 0.3 to 0.4), indel scores repeat only for the top variants, rhesus substitutions well (0.9).

The subject of this series is SIVsab (simian immunodeficiency virus of sabaeus monkeys), single-cycle GFP reporter, in CRFK cells. In words: enrichment among uninfected cells over input (fold); higher = stronger restriction. Particulars: library: insertions and deletions. How it is done:
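Pools of CRFK cells expressing variants of the TRIM5α v1 loop were challenged with the single-cycle reporter, sorted by GFP and sequenced; mean of two replicates.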
Sequence “MASGILVNVKEEVTCPICLELLTQPLSLDCGHSFCQACLTANHKKSMLDKGESSCPVCRISYQPENIRPNRHVANIVEKLREVKLSPEGQKVDHCARHGEKLLLFCQEDGKVICWLCERSQEHRGHHTFLTEEVAREYQVKLQAALEMLRQKQQEAEELEADIREEKASWKTQIQYDKTNVLADFEQLRDILDWEESNELQNLEKEEEDILKSLTNSETEMVQQTQSLRELISDLEHRLQGSVMELLQGVDGVIKRTENVTLKKPETFPKNQRRVFRAPDLKGMLEVFRELTDVRRYWVDVTVAPNNISCAVISEDKRQVSSPKPQIIYGARGTRYQTCTGILGSQSITSGKHYWEVDVSKKTAWILGVCAGFQPDAMCNIEKNENYQPKYGYWVIGLEEGVKCSAFQDSSFHTPSVPFIVPLSVIICPDRVGVFLDYEACTVSFFNITNHGFLIYKFSHCSFSQPVFPYLNPRKCGVPMTLCSPSS [human TRIM5α, 6-codon deletion at 339]” registered an enrichment of 1.11 ± 0.49.

“MASGILVNVKEEVTCPICLELLTQPLSLDCGHSFCQACLTANHKKSMLDKGESSCPVCRISYQPENIRPNRHVANIVEKLREVKLSPEGQKVDHCARHGEKLLLFCQEDGKVICWLCERSQEHRGHHTFLTEEVAREYQVKLQAALEMLRQKQQEAEELEADIREEKASWKTQIQYDKTNVLADFEQLRDILDWEESNELQNLEKEEEDILKSLTNSETEMVQQTQSLRELISDLEHRLQGSVMELLQGVDGVIKRTENVTLKKPETFPKNQRRVFRAPDLKGMLEVFRELTDVRRYWVDVTVAPNNISCAVISEDKRQVSSPKPQIIYGARGTRYQTFARGTRYQTFVNFNYCTGILGSQSITSGKHYWEVDVSKKTAWILGVCAGFQPDAMCNIEKNENYQPKYGYWVIGLEEGVKCSAFQDSSFHTPSVPFIVPLSVIICPDRVGVFLDYEACTVSFFNITNHGFLIYKFSHCSFSQPVFPYLNPRKCGVPMTLCSPSS [human TRIM5α, 9-codon duplication at 331]” came in with an enrichment of 0.581 ± 0.18.

As for “MASGILVNVKEEVTCPICLELLTQPLSLDCGHSFCQACLTANHKKSMLDKGESSCPVCRISYQPENIRPNRHVANIVEKLREVKLSPEGQKVDHCARHGEKLLLFCQEDGKVICWLCERSQEHRGHHTFLTEEVAREYQVKLQAALEMLRQKQQEAEELEADIREEKASWKTQIQYDKTNVLADFEQLRDILDWEESNELQNLEKEEEDILKSLTNSETEMVQQTQSLRELISDLEHRLQGSVMELLQGVDGVIKRTENVTLKKPETFPKNQRRVFRAPDLKGMLEVFRELTDVRRYWVDVTVAPNNISCAVISEDKRQVSSPKPQIIYGARGTRYQTFCTGILGSQSITSGKHYWEVDVSKKTAWILGVCAGFQPDAMCNIEKNENYQPKYGYWVIGLEEGVKCSAFQDSSFHTPSVPFIVPLSVIICPDRVGVFLDYEACTVSFFNITNHGFLIYKFSHCSFSQPVFPYLNPRKCGVPMTLCSPSS [human TRIM5α, 5-codon deletion at 340]”, the enrichment stood at 1.82 ± 1.

The sequence “MASGILVNVKEEVTCPICLELLTQPLSLDCGHSFCQACLTANHKKSMLDKGESSCPVCRISYQPENIRPNRHVANIVEKLREVKLSPEGQKVDHCARHGEKLLLFCQEDGKVICWLCERSQEHRGHHTFLTEEVAREYQVKLQAALEMLRQKQQEAEELEADIREEKASWKTQIQYDKTNVLADFEQLRDILDWEESNELQNLEKEEEDILKSLTNSETEMVQQTQSLRELISDLEHRLQGSVMELLQGVDGVIKRTENVTLKKPETFPKNQRRVFRAPDLKGMLEVFRELTDVRRYWVDVTVAPNNISCAVISEDKRQVSSPKPQIIYGARGTRYQTFFNYCTGILGSQSITSGKHYWEVDVSKKTAWILGVCAGFQPDAMCNIEKNENYQPKYGYWVIGLEEGVKCSAFQDSSFHTPSVPFIVPLSVIICPDRVGVFLDYEACTVSFFNITNHGFLIYKFSHCSFSQPVFPYLNPRKCGVPMTLCSPSS [human TRIM5α, 2-codon deletion at 340]” registered an enrichment of 1 ± 1.4.

For the sequence “MASGILVNVKEEVTCPICLELLTQPLSLDCGHSFCQACLTANHKKSMLDKGESSCPVCRISYQPENIRPNRHVANIVEKLREVKLSPEGQKVDHCARHGEKLLLFCQEDGKVICWLCERSQEHRGHHTFLTEEVAREYQVKLQAALEMLRQKQQEAEELEADIREEKASWKTQIQYDKTNVLADFEQLRDILDWEESNELQNLEKEEEDILKSLTNSETEMVQQTQSLRELISDLEHRLQGSVMELLQGVDGVIKRTENVTLKKPETFPKNQRRVFRAPDLKGMLEVFRELTDVRRYWVDVTVAPNNISCAVISEDKRQVSSPKPQIIYGARGTRYQTFFVNFNYCTGILGSQSITSGKHYWEVDVSKKTAWILGVCAGFQPDAMCNIEKNENYQPKYGYWVIGLEEGVKCSAFQDSSFHTPSVPFIVPLSVIICPDRVGVFLDYEACTVSFFNITNHGFLIYKFSHCSFSQPVFPYLNPRKCGVPMTLCSPSS [human TRIM5α, 1-codon duplication at 339]”, the enrichment was 81.8 ± 1.3.

For the sequence “MASGILVNVKEEVTCPICLELLTQPLSLDCGHSFCQACLTANHKKSMLDKGESSCPVCRISYQPENIRPNRHVANIVEKLREVKLSPEGQKVDHCARHGEKLLLFCQEDGKVICWLCERSQEHRGHHTFLTEEVAREYQVKLQAALEMLRQKQQEAEELEADIREEKASWKTQIQYDKTNVLADFEQLRDILDWEESNELQNLEKEEEDILKSLTNSETEMVQQTQSLRELISDLEHRLQGSVMELLQGVDGVIKRTENVTLKKPETFPKNQRRVFRAPDLKGMLEVFRELTDVRRYWVDVTVAPNNISCAVISEDKRQVSSPKPQIIYGARGTRYQTFGILGSQSITSGKHYWEVDVSKKTAWILGVCAGFQPDAMCNIEKNENYQPKYGYWVIGLEEGVKCSAFQDSSFHTPSVPFIVPLSVIICPDRVGVFLDYEACTVSFFNITNHGFLIYKFSHCSFSQPVFPYLNPRKCGVPMTLCSPSS [human TRIM5α, 7-codon deletion at 340]”, the enrichment amounted to 1 ± 0.57.

Regarding “MASGILVNVKEEVTCPICLELLTQPLSLDCGHSFCQACLTANHKKSMLDKGESSCPVCRISYQPENIRPNRHVANIVEKLREVKLSPEGQKVDHCARHGEKLLLFCQEDGKVICWLCERSQEHRGHHTFLTEEVAREYQVKLQAALEMLRQKQQEAEELEADIREEKASWKTQIQYDKTNVLADFEQLRDILDWEESNELQNLEKEEEDILKSLTNSETEMVQQTQSLRELISDLEHRLQGSVMELLQGVDGVIKRTENVTLKKPETFPKNQRRVFRAPDLKGMLEVFRELTDVRRYWVDVTVAPNNISCAVISEDKRQVSSPKPQIIYGARGTRYQTFGTRYQTFVNFNYCTGILGSQSITSGKHYWEVDVSKKTAWILGVCAGFQPDAMCNIEKNENYQPKYGYWVIGLEEGVKCSAFQDSSFHTPSVPFIVPLSVIICPDRVGVFLDYEACTVSFFNITNHGFLIYKFSHCSFSQPVFPYLNPRKCGVPMTLCSPSS [human TRIM5α, 7-codon duplication at 333]”, the enrichment was determined as 0.362 ± 0.35.

“MASGILVNVKEEVTCPICLELLTQPLSLDCGHSFCQACLTANHKKSMLDKGESSCPVCRISYQPENIRPNRHVANIVEKLREVKLSPEGQKVDHCARHGEKLLLFCQEDGKVICWLCERSQEHRGHHTFLTEEVAREYQVKLQAALEMLRQKQQEAEELEADIREEKASWKTQIQYDKTNVLADFEQLRDILDWEESNELQNLEKEEEDILKSLTNSETEMVQQTQSLRELISDLEHRLQGSVMELLQGVDGVIKRTENVTLKKPETFPKNQRRVFRAPDLKGMLEVFRELTDVRRYWVDVTVAPNNISCAVISEDKRQVSSPKPQIIYGARGTRYQTFILGSQSITSGKHYWEVDVSKKTAWILGVCAGFQPDAMCNIEKNENYQPKYGYWVIGLEEGVKCSAFQDSSFHTPSVPFIVPLSVIICPDRVGVFLDYEACTVSFFNITNHGFLIYKFSHCSFSQPVFPYLNPRKCGVPMTLCSPSS [human TRIM5α, 8-codon deletion at 340]” registered an enrichment of 1.15 ± 0.26.

As for “MASGILVNVKEEVTCPICLELLTQPLSLDCGHSFCQACLTANHKKSMLDKGESSCPVCRISYQPENIRPNRHVANIVEKLREVKLSPEGQKVDHCARHGEKLLLFCQEDGKVICWLCERSQEHRGHHTFLTEEVAREYQVKLQAALEMLRQKQQEAEELEADIREEKASWKTQIQYDKTNVLADFEQLRDILDWEESNELQNLEKEEEDILKSLTNSETEMVQQTQSLRELISDLEHRLQGSVMELLQGVDGVIKRTENVTLKKPETFPKNQRRVFRAPDLKGMLEVFRELTDVRRYWVDVTVAPNNISCAVISEDKRQVSSPKPQIIYGARGTRYQTFLGSQSITSGKHYWEVDVSKKTAWILGVCAGFQPDAMCNIEKNENYQPKYGYWVIGLEEGVKCSAFQDSSFHTPSVPFIVPLSVIICPDRVGVFLDYEACTVSFFNITNHGFLIYKFSHCSFSQPVFPYLNPRKCGVPMTLCSPSS [human TRIM5α, 9-codon deletion at 340]”, the enrichment worked out at 1.38 ± 0.39.

The sequence “MASGILVNVKEEVTCPICLELLTQPLSLDCGHSFCQACLTANHKKSMLDKGESSCPVCRISYQPENIRPNRHVANIVEKLREVKLSPEGQKVDHCARHGEKLLLFCQEDGKVICWLCERSQEHRGHHTFLTEEVAREYQVKLQAALEMLRQKQQEAEELEADIREEKASWKTQIQYDKTNVLADFEQLRDILDWEESNELQNLEKEEEDILKSLTNSETEMVQQTQSLRELISDLEHRLQGSVMELLQGVDGVIKRTENVTLKKPETFPKNQRRVFRAPDLKGMLEVFRELTDVRRYWVDVTVAPNNISCAVISEDKRQVSSPKPQIIYGARGTRYQTFNFNYCTGILGSQSITSGKHYWEVDVSKKTAWILGVCAGFQPDAMCNIEKNENYQPKYGYWVIGLEEGVKCSAFQDSSFHTPSVPFIVPLSVIICPDRVGVFLDYEACTVSFFNITNHGFLIYKFSHCSFSQPVFPYLNPRKCGVPMTLCSPSS [human TRIM5α, 1-codon deletion at 340]” came in with an enrichment of 0.987 ± 0.55.

Sequence “MASGILVNVKEEVTCPICLELLTQPLSLDCGHSFCQACLTANHKKSMLDKGESSCPVCRISYQPENIRPNRHVANIVEKLREVKLSPEGQKVDHCARHGEKLLLFCQEDGKVICWLCERSQEHRGHHTFLTEEVAREYQVKLQAALEMLRQKQQEAEELEADIREEKASWKTQIQYDKTNVLADFEQLRDILDWEESNELQNLEKEEEDILKSLTNSETEMVQQTQSLRELISDLEHRLQGSVMELLQGVDGVIKRTENVTLKKPETFPKNQRRVFRAPDLKGMLEVFRELTDVRRYWVDVTVAPNNISCAVISEDKRQVSSPKPQIIYGARGTRYQTFNYCTGILGSQSITSGKHYWEVDVSKKTAWILGVCAGFQPDAMCNIEKNENYQPKYGYWVIGLEEGVKCSAFQDSSFHTPSVPFIVPLSVIICPDRVGVFLDYEACTVSFFNITNHGFLIYKFSHCSFSQPVFPYLNPRKCGVPMTLCSPSS [human TRIM5α, 3-codon deletion at 339]” gave an enrichment of 1.23 ± 0.4.

“MASGILVNVKEEVTCPICLELLTQPLSLDCGHSFCQACLTANHKKSMLDKGESSCPVCRISYQPENIRPNRHVANIVEKLREVKLSPEGQKVDHCARHGEKLLLFCQEDGKVICWLCERSQEHRGHHTFLTEEVAREYQVKLQAALEMLRQKQQEAEELEADIREEKASWKTQIQYDKTNVLADFEQLRDILDWEESNELQNLEKEEEDILKSLTNSETEMVQQTQSLRELISDLEHRLQGSVMELLQGVDGVIKRTENVTLKKPETFPKNQRRVFRAPDLKGMLEVFRELTDVRRYWVDVTVAPNNISCAVISEDKRQVSSPKPQIIYGARGTRYQTFNYCTGILGSQSITSGKHYWEVDVSKKTAWILGVCAGFQPDAMCNIEKNENYQPKYGYWVIGLEEGVKCSAFQDSSFHTPSVPFIVPLSVIICPDRVGVFLDYEACTVSFFNITNHGFLIYKFSHCSFSQPVFPYLNPRKCGVPMTLCSPSS [human TRIM5α, 3-codon deletion at 340]” gave an enrichment of 0.958 ± 0.55.
